# Results as given in the supplement of paper PMC8728848.
# This is one part of the list.
# Assays:
# Assay in all cases: glycan array binding signal (z-score within array); higher = stronger binding
# Conditions in all cases: glycan notation: IUPAC condensed, linker removed
# Gal6S(b1-3)GlcNAc6S = target: Gal6S(b1-3)GlcNAc6S
# Procedure, shortened: (§1)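 From the Consortium for Functional Glycomics database, 3228 arrays were curated, keeping only those whose protein sequence was available. Binding is given as a within-array Z-score averaged across arrays sharing a protein sequence and across linkers. Negative Z-scores can be read as non-binding.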
# Gal6S(b1-4)Glc = target: Gal6S(b1-4)Glc
# Procedure, shortened: as §1
# Gal6S(b1-4)Glc6S = target: Gal6S(b1-4)Glc6S
# Procedure, shortened: as §1
# Gal6S(b1-4)GlcNAc = target: Gal6S(b1-4)GlcNAc
# Procedure, shortened: as §1
# Gal6S(b1-4)GlcNAc6S = target: Gal6S(b1-4)GlcNAc6S
# Procedure, shortened: as §1
# GalNAc(a1-3)Gal = target: GalNAc(a1-3)Gal
# Procedure, shortened: as §1
# GalNAc(a1-3)GalNAc = target: GalNAc(a1-3)GalNAc
# Procedure, shortened: as §1
# [1] = target: GalNAc(a1-3)GalNAc(b1-3)Gal(a1-4)Gal(b1-4)Glc
# Procedure, shortened: as §1
# [2] = target: GalNAc(a1-3)GalNAc(b1-3)Gal(a1-4)Gal(b1-4)GlcNAc
# Procedure, shortened: as §1
# GalNAc(b1-3)Gal = target: GalNAc(b1-3)Gal
# Procedure, shortened: as §1
# [3] = target: GalNAc(b1-3)Gal(a1-4)Gal(b1-4)GlcNAc
# Procedure, shortened: as §1
# [4] = target: GalNAc(b1-3)Gal(a1-4)Gal(b1-4)GlcNAc(b1-3)Gal(b1-4)Glc
# Procedure, shortened: as §1
# [5] = target: GalNAc(b1-3)Gal(a1-6)Gal(b1-4)Glc
# Procedure, shortened: as §1
# GalNAc(b1-3)GalNAc = target: GalNAc(b1-3)GalNAc
# Procedure, shortened: as §1
# GalNAc(b1-3)GlcNAc = target: GalNAc(b1-3)GlcNAc
# Procedure, shortened: as §1
# GalNAc(b1-4)Gal(b1-4)Glc = target: GalNAc(b1-4)Gal(b1-4)Glc
# Procedure, shortened: as §1
# GalNAc(b1-4)GlcNAc = target: GalNAc(b1-4)GlcNAc
# Procedure, shortened: as §1
# [6] = target: GalNAc(b1-4)GlcNAc(b1-2)Man
# Procedure, shortened: as §1
# [7] = target: GalNAc(b1-4)GlcNAc(b1-2)Man(a1-3)[GalNAc(b1-4)GlcNAc(b1-2)Man(a1-6)]Man(b1-4)GlcNAc(b1-4)GlcNAc
# Procedure, shortened: as §1
# [8] = target: GalNAc(b1-4)GlcNAc(b1-3)GalNAc(b1-4)GlcNAc
# Procedure, shortened: as §1
# GalNAc(b1-4)GlcNAc6S = target: GalNAc(b1-4)GlcNAc6S
# Procedure, shortened: as §1
# GalNAc(b1-6)GalNAc = target: GalNAc(b1-6)GalNAc
# Procedure, shortened: as §1
# GalNAc3S(b1-4)GlcNAc = target: GalNAc3S(b1-4)GlcNAc
# Procedure, shortened: as §1
# GalNAc3S(b1-4)GlcNAc3S = target: GalNAc3S(b1-4)GlcNAc3S
# Procedure, shortened: as §1
# [9] = target: GalNAc3S(b1-4)[Fuc(a1-3)]GlcNAc
# Procedure, shortened: as §1
# GalNAc4S6S(b1-4)GlcNAc = target: GalNAc4S6S(b1-4)GlcNAc
# Procedure, shortened: as §1
# GalNAc6S(b1-4)GlcNAc = target: GalNAc6S(b1-4)GlcNAc
# Procedure, shortened: as §1
# Glc(a1-4)Glc = target: Glc(a1-4)Glc
# Procedure, shortened: as §1
# [10] = target: Glc(a1-4)Glc(a1-4)Glc(a1-4)Glc
# Procedure, shortened: as §1
# Glc(a1-6)Glc(a1-6)Glc = target: Glc(a1-6)Glc(a1-6)Glc
# Procedure, shortened: as §1
# [11] = target: Glc(a1-6)Glc(a1-6)Glc(a1-6)Glc
# Procedure, shortened: as §1
# Glc(b1-4)Glc = target: Glc(b1-4)Glc
# Procedure, shortened: as §1
# Glc(b1-6)Glc = target: Glc(b1-6)Glc
# Procedure, shortened: as §1
# GlcA(b1-3)Gal = target: GlcA(b1-3)Gal
# Procedure, shortened: as §1
# GlcA(b1-3)GlcNAc = target: GlcA(b1-3)GlcNAc
# Procedure, shortened: as §1
# GlcA(b1-6)Gal = target: GlcA(b1-6)Gal
# Procedure, shortened: as §1
# [12] = target: GlcA3S(b1-3)Gal(b1-4)GlcNAc(b1-2)Man
# Procedure, shortened: as §1
# [13] = target: GlcA3S(b1-3)Gal(b1-4)GlcNAc(b1-3)Gal(b1-4)Glc
# Procedure, shortened: as §1
binder,measurement,setting,value
Epa12 (Candida glabrata) (protein) MGSSHHHHHHSSGLVPRGSHMLEPDNSLQIFDSFLSNPSKYPLGCSPKITNPKKGLSMELYSYPYRKKGSHPCWDPAYLDPNFPRVGYKKNKLIARVDGVSGDINFNFHPKRQCTPIADYLPPNFNYNEPITTTNFTMLLYGYFKPKVTGLHTFDISADDLLFMNFGAGNAFDCCRRDSTADTFGNYVAWAIWGRRIVRNKLTVRLDKGIYYPLRLFFNNRDYYGQMRLTFKTEHGSERITDFSDYFFSVDDTSEGCPGLITYESECADVKSSTVLETDYITIQAEKE,glycan array binding signal (z-score),Gal6S(b1-3)GlcNAc6S,3.83
same,glycan array binding signal (z-score),Gal6S(b1-4)Glc,2.1
same,glycan array binding signal (z-score),Gal6S(b1-4)Glc6S,7.51
same,glycan array binding signal (z-score),Gal6S(b1-4)GlcNAc,1.98
same,glycan array binding signal (z-score),Gal6S(b1-4)GlcNAc6S,8.69
same,glycan array binding signal (z-score),GalNAc(a1-3)Gal,-0.327
same,glycan array binding signal (z-score),GalNAc(a1-3)GalNAc,-0.336
same,glycan array binding signal (z-score),[1],-0.26
same,glycan array binding signal (z-score),[2],-0.359
same,glycan array binding signal (z-score),GalNAc(b1-3)Gal,-0.291
same,glycan array binding signal (z-score),[3],-0.149
same,glycan array binding signal (z-score),[4],-0.261
same,glycan array binding signal (z-score),[5],-0.371
same,glycan array binding signal (z-score),GalNAc(b1-3)GalNAc,-0.362
same,glycan array binding signal (z-score),GalNAc(b1-3)GlcNAc,-0.39
same,glycan array binding signal (z-score),GalNAc(b1-4)Gal(b1-4)Glc,-0.008
same,glycan array binding signal (z-score),GalNAc(b1-4)GlcNAc,-0.302
same,glycan array binding signal (z-score),[6],-0.42
same,glycan array binding signal (z-score),[7],-0.258
same,glycan array binding signal (z-score),[8],-0.349
same,glycan array binding signal (z-score),GalNAc(b1-4)GlcNAc6S,-0.335
same,glycan array binding signal (z-score),GalNAc(b1-6)GalNAc,-0.347
same,glycan array binding signal (z-score),GalNAc3S(b1-4)GlcNAc,-0.35
same,glycan array binding signal (z-score),GalNAc3S(b1-4)GlcNAc3S,-0.237
same,glycan array binding signal (z-score),[9],-0.341
same,glycan array binding signal (z-score),GalNAc4S6S(b1-4)GlcNAc,-0.154
same,glycan array binding signal (z-score),GalNAc6S(b1-4)GlcNAc,-0.346
same,glycan array binding signal (z-score),Glc(a1-4)Glc,-0.32
same,glycan array binding signal (z-score),[10],-0.195
same,glycan array binding signal (z-score),Glc(a1-6)Glc(a1-6)Glc,-0.332
same,glycan array binding signal (z-score),[11],-0.295
same,glycan array binding signal (z-score),Glc(b1-4)Glc,-0.371
same,glycan array binding signal (z-score),Glc(b1-6)Glc,-0.278
same,glycan array binding signal (z-score),GlcA(b1-3)Gal,-0.149
same,glycan array binding signal (z-score),GlcA(b1-3)GlcNAc,-0.388
same,glycan array binding signal (z-score),GlcA(b1-6)Gal,1.79
same,glycan array binding signal (z-score),[12],-0.13
same,glycan array binding signal (z-score),[13],-0.32
